Results reported in paper PMC4336329 (PLoS ONE, 2015).
Screen size: about 310,000 compounds; about 2,200 (0.71%) showed an effect of 50% or more. Effects have a minus sign here. The list shows a part of the results.

biological target: human ether-à-go-go-related gene (hERG) potassium channel (human, UniProt Q12809); assay: primary screen, population patch clamp on CHO cells stably expressing hERG
Sequence (Q12809 whole entry, looked up): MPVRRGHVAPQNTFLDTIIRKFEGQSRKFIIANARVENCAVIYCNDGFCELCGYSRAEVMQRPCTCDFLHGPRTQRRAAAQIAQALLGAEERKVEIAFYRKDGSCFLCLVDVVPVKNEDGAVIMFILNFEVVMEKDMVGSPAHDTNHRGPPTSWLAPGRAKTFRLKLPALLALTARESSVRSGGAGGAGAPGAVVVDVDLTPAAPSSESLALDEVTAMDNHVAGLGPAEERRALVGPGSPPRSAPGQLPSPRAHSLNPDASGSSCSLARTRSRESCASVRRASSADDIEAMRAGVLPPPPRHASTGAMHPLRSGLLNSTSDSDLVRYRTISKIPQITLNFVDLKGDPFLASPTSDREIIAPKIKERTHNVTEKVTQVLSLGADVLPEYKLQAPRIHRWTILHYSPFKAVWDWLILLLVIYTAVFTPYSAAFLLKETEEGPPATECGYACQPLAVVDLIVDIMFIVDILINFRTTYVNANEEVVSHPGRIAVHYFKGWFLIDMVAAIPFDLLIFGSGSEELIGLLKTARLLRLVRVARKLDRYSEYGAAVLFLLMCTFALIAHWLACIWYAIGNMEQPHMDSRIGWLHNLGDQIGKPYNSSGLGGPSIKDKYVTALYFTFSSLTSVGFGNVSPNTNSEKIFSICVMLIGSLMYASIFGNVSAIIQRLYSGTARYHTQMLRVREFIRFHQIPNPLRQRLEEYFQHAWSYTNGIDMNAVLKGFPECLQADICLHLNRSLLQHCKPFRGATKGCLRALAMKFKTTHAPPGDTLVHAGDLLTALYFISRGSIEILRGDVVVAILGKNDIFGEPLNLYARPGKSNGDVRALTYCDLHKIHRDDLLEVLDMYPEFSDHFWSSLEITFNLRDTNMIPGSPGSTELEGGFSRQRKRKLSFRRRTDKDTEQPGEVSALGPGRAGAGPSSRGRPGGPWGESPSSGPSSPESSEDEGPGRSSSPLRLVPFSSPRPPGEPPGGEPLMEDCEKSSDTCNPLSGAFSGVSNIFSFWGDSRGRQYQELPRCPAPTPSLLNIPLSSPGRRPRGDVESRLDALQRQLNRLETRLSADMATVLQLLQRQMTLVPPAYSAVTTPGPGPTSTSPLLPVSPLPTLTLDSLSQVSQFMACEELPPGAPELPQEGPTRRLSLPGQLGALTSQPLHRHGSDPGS

Row | SMILES | hERG current change (%, negative = inhibition) at 1uM
1 | COc1ccc(CN2CCC(CO)(Cc3cccc(C(F)(F)F)c3)CC2)cc1Cn1cccn1 | -35.3%
2 | Cc1ccc2cc(CN(Cc3ccco3)C(=S)NCC3CCCO3)c(=O)[nH]c2c1C (centres unmarked) | -7.41%
3 | O=C(NCCF)[C@H]1C[C@@H]1[C@H](NP(=O)(c1ccccc1)c1ccccc1)c1ccccc1 | 9.1%
4 | CN(Cc1ccccc1)C(=O)CC(c1ccccc1)c1cc(Cl)ccc1O (centres unmarked) | -2.12%
5 | COC(=O)c1cc(C(=O)OCC(=O)Nc2cc(C)on2)cc([N+](=O)[O-])c1 | 16.2%
6 | CSCC(C)N1CCC(Oc2cccc(C(=O)NCc3ccccn3)c2)CC1 (centres unmarked) | 10%
7 | Cc1ccc(-c2c(C)n([O-])c3c([n+]2=O)CCCCC3)o1 | 15.9%
8 | COc1ccc(C(CNC(=O)c2cc3ccccc3cc2OC)N2CCCC2)cc1 (centres unmarked) | -31.7%
9 | Cc1ccccc1-c1ccc(=O)n(CC(=O)Nc2ccc(N3CCOCC3)cc2)n1 | 11.3%
10 | O=C(CSc1nc2ccc(Cl)cc2[nH]1)c1c[nH]c2ccccc12 | 9.13%
11 | OCCNc1nc(Nc2ccc(Cl)cc2)nc(N2CCCC2)n1 | -1.16%
12 | COc1cccc(OC)c1C(=O)Nc1c(C)n(C)n(-c2ccccc2)c1=O | 4.69%
13 | O=C1OCC(CO)(CO)N=C1NNc1cc(Cl)ccc1Cl | 10.3%
14 | CC(=O)c1ccc(NCCC(=O)c2ccccc2)cc1 | -3.1%
15 | CCN(CCNC(=O)C1CC(=O)N(CCc2ccccc2)C1)c1ccccc1 (centres unmarked) | 12.2%
16 | O=C(O)C1(P(=O)(c2ccc(Cl)cc2)c2ccc(Cl)cc2)CC1 | 14.9%
17 | Cc1occc1C(=O)N/N=C/c1ccccc1[N+](=O)[O-] | 6.4%
18 | C=CCOC(=O)C(C#N)c1nc2ccccc2nc1N1CCN(c2ccccc2OCC)CC1 (centres unmarked) | 9.93%
19 | O=[N+]([O-])c1ccccc1/C=N/NC1=NS(=O)(=O)c2ccccc21 | -7.86%

Row | SMILES | hERG current change (%, negative = inhibition) at 1uM
20 | O=C(Nc1ccccc1)C1CCN(c2nccs2)CC1 | 3.99%
21 | CCc1ccc(C2C(C#N)=C(N)N(N(C)C)C3=C2C(=O)CCC3)cc1 (centres unmarked) | 4.73%
22 | CCOC(=O)NC1(Nc2ccc(C)cc2)Oc2ccccc2O1 | 10.5%
23 | Cc1cccc(OCCOC(=O)Nc2ccccc2)c1 | 20.7%
24 | COc1ccccc1NC(=O)CCC(=O)OCc1ccc(Br)cc1 | -4.11%
25 | COc1ccc(N(CC(=O)NCCSc2ccccn2)S(=O)(=O)c2ccccc2)c(OC)c1 | 14.3%
26 | O=[N+]([O-])c1cc2cccnc2c2ncccc12 | 18.6%
27 | NC(=O)OCC(COC(N)=O)c1ccccc1 | 19.1%
28 | O=C(O)c1ccc(S(=O)(=O)c2ccc3c(c2)C(=O)N(Cc2ccco2)C3=O)cc1 | -2.4%
29 | Cc1c(Cl)cccc1Nc1ncccc1C(=O)OCC(O)CO (centres unmarked) | 10.8%
30 | NC1=NN=C(N2N=C(c3ccco3)CC2(O)C(F)(F)F)n2ncnc2C1 (centres unmarked) | 11.4%
31 | CCOc1ccc(N2CC(C(=O)Nc3ccc4c(c3)OCO4)CC2=O)cc1 (centres unmarked) | 7.31%
32 | CCOC(=O)C1CCCN(C(=O)c2cc(-c3ccccc3)nc3ccccc23)C1 (centres unmarked) | 6.61%
33 | Cc1cccn2c(=O)c3cc(C(N)=S)c(=N)n(CCCOC(C)C)c3nc12 | -77.8%
34 | CCOC(=O)CSCc1cn2cc(Cl)ccc2n1 | 0.388%
35 | CCCNC(=S)NC1CC2CCC(C1)N2Cc1ccccc1 (centres unmarked) | 4.46%
36 | COc1cccc(-c2noc(C3CCCN(C(=O)Cc4ccccc4)C3)n2)c1 (centres unmarked) | -3.22%
37 | CSc1nc2sc3c(c2c(=O)n1C1CCCCC1)CCN(C)C3 | -1.02%
38 | Cc1ccc(NC(=S)NNC(=O)Cn2nc(C(F)F)cc2C(F)F)cc1 | 13.6%

Row | SMILES | hERG current change (%, negative = inhibition) at 1uM
39 | CN(C)S(=O)(=O)c1ccc(Cl)c(C(=O)NC2CCN(Cc3ccccc3)C2)c1 (centres unmarked) | 14.8%
40 | CCOC(=O)c1cnn2c(N)c(C#N)nnc12 | 0.333%
41 | CCOc1ccc(N2CC(C(=O)NCCc3ccc(F)cc3)CC2=O)cc1 (centres unmarked) | -22.2%
42 | CCOC(=O)c1c(N)sc(C(O)(C(F)(F)F)C(F)(F)F)c1-c1ccc(OC)cc1OC | 12.3%
43 | CCn1c(SCC(=O)N2CCCc3ccccc32)nnc1-c1c[nH]c2ccccc12 | 2.46%
44 | CCc1noc(C)c1C(=O)NCCc1ccccc1 | 4.84%
45 | COc1cccc(NC(=O)CN2C(=O)CSc3ccc(S(=O)(=O)N4CCOCC4)cc32)c1 | 10.6%
46 | CCOC(=O)c1cc(S(=O)(=O)NCc2ccc3c(c2)OCO3)cn1C | 15.9%
47 | CCN(CC)S(=O)(=O)c1ccc(/C=C/C(=O)OCC(=O)N(C(C)C)C(C)C)cc1 | 10.3%
48 | CN(C)CCNC(=O)c1cccn(Cc2cccc(C(F)(F)F)c2)c1=O | 3.81%
49 | CC(C)OC(=O)CC(NC(=O)OC(C)(C)C)c1ccccc1 (centres unmarked) | 16.5%
50 | COC(=O)C1=CN(CCOC23CC4CC(CC(C4)C2)C3)C=C(C(=O)OC)C1c1ccsc1 | 10.8%
51 | CCc1nnc(NC(=O)c2ccc(S(=O)(=O)N(CCOC)CCOC)cc2)s1 | 18.2%
52 | CCc1ccc(NC(=O)Cn2c(=O)n(CCC(=O)NC3CCN(Cc4ccccc4)CC3)c(=O)c3ccccc32)cc1 | 8.47%
53 | CC1CCN(C(=O)CCNS(=O)(=O)c2ccc(Cl)cc2)CC1 | 5.65%
54 | COc1cc(SC)ccc1C(=O)NCCOc1ccc(F)cc1 | 8.25%
55 | COc1ccccc1NC(=O)C(C)Sc1nc2ccccc2c(=O)n1CC1CCCO1 (centres unmarked) | -4.34%
56 | CC(C)c1ccc(OCC(=O)NCc2ccco2)cc1 | 8.06%
